Measured values published in the antibiotic and cytotoxicity screens of Wong et al. (2023).
The list shows a part of the results.

Columns and labels:
[1] = system: HSkMC (human skeletal muscle cells); assay: cytotoxicity call (relative viability < 0.9); conditions: 10 µM
[2] = system: S. aureus RN4220; assay: growth inhibition call (relative growth <= 0.2); conditions: 50 µM

Structure (SMILES) | cytotoxicity call [1] | growth inhibition call [2]
C[C@H](CO)N1C[C@H](C)[C@H](CN(C)Cc2ccc(C(=O)O)cc2)Oc2ccc(NS(C)(=O)=O)cc2C1=O | inactive | inactive
Cc1cc(C(=O)Nc2cccc3c2O[C@H](CN(C)C(=O)NC(C)C)[C@@H](C)CN([C@@H](C)CO)C3=O)n(C)n1 | inactive | inactive
Cc1ccc(S(=O)(=O)Nc2ccc3c(c2)C(=O)N([C@H](C)CO)C[C@H](C)[C@@H](CN(C)C(=O)Nc2ccc4c(c2)OCO4)OCCCC[C@@H](C)O3)cc1 | inactive | inactive
C[C@H]1CCCCO[C@H](CN(C)Cc2ccc(Cl)c(Cl)c2)[C@@H](C)CN([C@@H](C)CO)C(=O)c2cc(NC(=O)Nc3ccc(C(F)(F)F)cc3)ccc2O1 | inactive | inactive
C[C@H]1CN([C@@H](C)CO)C(=O)c2cccc(NS(=O)(=O)c3ccc(Cl)cc3)c2O[C@H]1CN(C)Cc1ccc(Oc2ccccc2)cc1 | inactive | inactive
COc1ccc(S(=O)(=O)Nc2ccc3c(c2)C(=O)N([C@H](C)CO)C[C@H](C)[C@H](CN(C)C(=O)Nc2ccc(F)cc2)OCCCC[C@@H](C)O3)cc1 | inactive | inactive
Cc1noc(C)c1S(=O)(=O)Nc1cccc2c1O[C@H](CN(C)C(=O)Nc1ccccc1)[C@H](C)CN([C@H](C)CO)C2=O | inactive | inactive
COCCOC(=O)N1C(=O)[C@@]2(c3cc(C#CCC(C(=O)OC)C(=O)OC)ccc31)[C@H](c1ccc(OCCO)cc1)N1[C@H](c3ccccc3)[C@H](c3ccccc3)OC(=O)[C@H]1[C@@H]2C(=O)N1CCCCCCC1 | inactive | inactive
